# Data: the supplement of paper PMC8728848
# This is one part of the list.
# B1: DGL (Dioclea grandiflora), P08902 (protein)
# chain: ADTIVAVELDSYPNTDIGDPNYPHIGIDIKSIRSKSTARWNMQTGKVGTVHISYNSVAKRLSAVVSYSGSSSTTVSYDVDLNNVLPEWVRVGLSATTGLYKETNTILSWSFTSKLKTNSIADENSLHFSFHKFSQNPKDLILQGDAFTDSDGNLELTKVSSSGDPQGNSVGRALFYAPVHIWESSAVVASFDATFTFLIKSPDREPADGITFFIANTDTSIPSGSGGRLLGLFPDAN
# Legend:
# Test in all cases: glycan array binding signal (z-score within array); higher = stronger binding
# Settings in all cases: glycan notation: IUPAC condensed, linker removed
# [1] = molecular target: GlcNAc(a1-4)Gal(b1-4)GlcNAc(b1-3)Gal(b1-4)GlcNAc(b1-3)Gal(b1-4)GlcNAc
# Outline: (§1)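 The Consortium for Functional Glycomics database supplied 3228 glycan arrays, of which those lacking an available protein sequence were dropped. The binding signal, a within-array Z-score, was averaged across arrays of the same protein sequence and across linkers. Negative scores can be read as non-binding.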
# [2] = molecular target: GlcNAc(a1-4)Gal(b1-4)GlcNAc(b1-3)Gal(b1-4)[Fuc(a1-3)]GlcNAc(b1-3)Gal(b1-4)[Fuc(a1-3)]GlcNAc
# Outline: as §1
# [3] = molecular target: GlcNAc(a1-6)Gal(b1-4)GlcNAc
# Outline: as §1
# [4] = molecular target: GlcNAc(b1-2)Gal(b1-3)GalNAc
# Outline: as §1
# [5] = molecular target: GlcNAc(b1-2)Man(a1-3)[GlcNAc(b1-2)Man(a1-6)]Man(b1-4)GlcNAc(b1-4)GlcNAc
# Outline: as §1
# [6] = molecular target: GlcNAc(b1-2)Man(a1-3)[GlcNAc(b1-2)Man(a1-6)]Man(b1-4)GlcNAc(b1-4)[Fuc(a1-6)]GlcNAc
# Outline: as §1
# GlcNAc(b1-3)Gal = molecular target: GlcNAc(b1-3)Gal
# Outline: as §1
# [7] = molecular target: GlcNAc(b1-3)Gal(b1-3)GalNAc
# Outline: as §1
# GlcNAc(b1-3)Gal(b1-4)Glc = molecular target: GlcNAc(b1-3)Gal(b1-4)Glc
# Outline: as §1
# [8] = molecular target: GlcNAc(b1-3)Gal(b1-4)GlcNAc
# Outline: as §1
# [9] = molecular target: GlcNAc(b1-3)Gal(b1-4)GlcNAc(b1-3)Gal(b1-4)GlcNAc
# Outline: as §1
# GlcNAc(b1-3)GalNAc = molecular target: GlcNAc(b1-3)GalNAc
# Outline: as §1
# GlcNAc(b1-3)Man = molecular target: GlcNAc(b1-3)Man
# Outline: as §1
# [10] = molecular target: GlcNAc(b1-3)[GlcNAc(b1-4)][GlcNAc(b1-6)]GlcNAc
# Outline: as §1
# [11] = molecular target: GlcNAc(b1-3)[GlcNAc(b1-6)]Gal(b1-4)GlcNAc
# Outline: as §1
# [12] = molecular target: GlcNAc(b1-3)[GlcNAc(b1-6)]GalNAc
# Outline: as §1
# [13] = molecular target: GlcNAc(b1-4)Gal(b1-4)GlcNAc
# Outline: as §1
# GlcNAc(b1-4)GlcNAc = molecular target: GlcNAc(b1-4)GlcNAc
# Outline: as §1
# [14] = molecular target: GlcNAc(b1-4)GlcNAc(b1-4)GlcNAc
# Outline: as §1
# [15] = molecular target: GlcNAc(b1-4)GlcNAc(b1-4)GlcNAc(b1-4)GlcNAc(b1-4)GlcNAc
# Outline: as §1
# [16] = molecular target: GlcNAc(b1-4)GlcNAc(b1-4)GlcNAc(b1-4)GlcNAc(b1-4)GlcNAc(b1-4)GlcNAc
# Outline: as §1
# [17] = molecular target: GlcNAc(b1-4)[GlcNAc(b1-6)]GalNAc
# Outline: as §1
# [18] = molecular target: GlcNAc(b1-6)Gal(b1-4)GlcNAc
# Outline: as §1
# GlcNAc(b1-6)GalNAc = molecular target: GlcNAc(b1-6)GalNAc
# Outline: as §1
# GlcNAc3Prop(b1-4)GlcNAc = molecular target: GlcNAc3Prop(b1-4)GlcNAc
# Outline: as §1
# [19] = molecular target: GlcNAc6S(b1-3)Gal(b1-4)GlcNAc
# Outline: as §1
# Kdn(a2-3)Gal(b1-3)GalNAc = molecular target: Kdn(a2-3)Gal(b1-3)GalNAc
# Outline: as §1
# Kdn(a2-3)Gal(b1-3)GlcNAc = molecular target: Kdn(a2-3)Gal(b1-3)GlcNAc
# Outline: as §1
# Kdn(a2-3)Gal(b1-4)Glc = molecular target: Kdn(a2-3)Gal(b1-4)Glc
# Outline: as §1
# Kdn(a2-3)Gal(b1-4)GlcNAc = molecular target: Kdn(a2-3)Gal(b1-4)GlcNAc
# Outline: as §1
# [20] = molecular target: Kdn(a2-3)Gal(b1-4)[Fuc(a1-3)]GlcNAc
# Outline: as §1
# Kdn(a2-6)Gal(b1-4)GlcNAc = molecular target: Kdn(a2-6)Gal(b1-4)GlcNAc
# Outline: as §1
# [21] = molecular target: Man(a1-2)Man(a1-2)Man(a1-3)Man
# Outline: as §1
# [22] = molecular target: Man(a1-2)Man(a1-2)Man(a1-6)[Man(a1-3)]Man
# Outline: as §1
# Man(a1-2)Man(a1-3)Man = molecular target: Man(a1-2)Man(a1-3)Man
# Outline: as §1
# [23] = molecular target: Man(a1-2)Man(a1-3)[Man(a1-2)Man(a1-6)]Man
# Outline: as §1
# [24] = molecular target: Man(a1-2)Man(a1-3)[Man(a1-2)Man(a1-6)]Man(a1-6)[Man(a1-2)Man(a1-2)Man(a1-3)]Man
# Outline: as §1
# [25] = molecular target: Man(a1-2)Man(a1-3)[Man(a1-2)Man(a1-6)]Man(a1-6)[Man(a1-2)Man(a1-2)Man(a1-3)]Man(b1-4)GlcNAc(b1-4)GlcNAc
# Outline: as §1
# [26] = molecular target: Man(a1-2)Man(a1-3)[Man(a1-6)]Man(a1-6)[Man(a1-2)Man(a1-3)]Man(b1-4)GlcNAc(b1-4)GlcNAc
# Outline: as §1
# [27] = molecular target: Man(a1-2)Man(a1-6)[Man(a1-3)]Man(a1-6)[Man(a1-2)Man(a1-2)Man(a1-3)]Man
# Outline: as §1
# [28] = molecular target: Man(a1-2)Man(a1-6)[Man(a1-3)]Man(a1-6)[Man(a1-2)Man(a1-2)Man(a1-3)]Man(b1-4)GlcNAc(b1-4)GlcNAc
# Outline: as §1
# Man(a1-3)[Man(a1-6)]Man = molecular target: Man(a1-3)[Man(a1-6)]Man
# Outline: as §1
# [29] = molecular target: Man(a1-3)[Man(a1-6)]Man(a1-6)[Man(a1-2)Man(a1-3)]Man(b1-4)GlcNAc(b1-4)GlcNAc
# Outline: as §1
# [30] = molecular target: Man(a1-3)[Man(a1-6)]Man(a1-6)[Man(a1-3)]Man
# Outline: as §1
binder,measurement,setting,value
B1,glycan array binding signal (z-score),[1],-0.167
same,glycan array binding signal (z-score),[2],0.009
same,glycan array binding signal (z-score),[3],-0.17
same,glycan array binding signal (z-score),[4],-0.177
same,glycan array binding signal (z-score),[5],1.26
same,glycan array binding signal (z-score),[6],0.316
same,glycan array binding signal (z-score),GlcNAc(b1-3)Gal,-0.178
same,glycan array binding signal (z-score),[7],-0.185
same,glycan array binding signal (z-score),GlcNAc(b1-3)Gal(b1-4)Glc,-0.182
same,glycan array binding signal (z-score),[8],-0.179
same,glycan array binding signal (z-score),[9],-0.179
same,glycan array binding signal (z-score),GlcNAc(b1-3)GalNAc,-0.158
same,glycan array binding signal (z-score),GlcNAc(b1-3)Man,-0.182
same,glycan array binding signal (z-score),[10],-0.183
same,glycan array binding signal (z-score),[11],-0.183
same,glycan array binding signal (z-score),[12],-0.175
same,glycan array binding signal (z-score),[13],-0.171
same,glycan array binding signal (z-score),GlcNAc(b1-4)GlcNAc,-0.178
same,glycan array binding signal (z-score),[14],-0.177
same,glycan array binding signal (z-score),[15],-0.173
same,glycan array binding signal (z-score),[16],-0.177
same,glycan array binding signal (z-score),[17],-0.167
same,glycan array binding signal (z-score),[18],-0.171
same,glycan array binding signal (z-score),GlcNAc(b1-6)GalNAc,-0.181
same,glycan array binding signal (z-score),GlcNAc3Prop(b1-4)GlcNAc,-0.178
same,glycan array binding signal (z-score),[19],-0.155
same,glycan array binding signal (z-score),Kdn(a2-3)Gal(b1-3)GalNAc,-0.175
same,glycan array binding signal (z-score),Kdn(a2-3)Gal(b1-3)GlcNAc,-0.18
same,glycan array binding signal (z-score),Kdn(a2-3)Gal(b1-4)Glc,-0.178
same,glycan array binding signal (z-score),Kdn(a2-3)Gal(b1-4)GlcNAc,-0.172
same,glycan array binding signal (z-score),[20],-0.176
same,glycan array binding signal (z-score),Kdn(a2-6)Gal(b1-4)GlcNAc,-0.162
same,glycan array binding signal (z-score),[21],0.499
same,glycan array binding signal (z-score),[22],5.91
same,glycan array binding signal (z-score),Man(a1-2)Man(a1-3)Man,1.58
same,glycan array binding signal (z-score),[23],9.67
same,glycan array binding signal (z-score),[24],3.48
same,glycan array binding signal (z-score),[25],-0.111
same,glycan array binding signal (z-score),[26],6.68
same,glycan array binding signal (z-score),[27],7.91
same,glycan array binding signal (z-score),[28],6.41
same,glycan array binding signal (z-score),Man(a1-3)[Man(a1-6)]Man,3.63
same,glycan array binding signal (z-score),[29],1.2
same,glycan array binding signal (z-score),[30],2.21
